Drawing on publication PMC7515635, this text covers binding for 5 substances.

By UniProt entry, the sequences of proteins in these tests, tags left out. Where a name states a change or a piece, a line headed by the entry shows the natural chain unless it says otherwise.
UniProt Q9FG23: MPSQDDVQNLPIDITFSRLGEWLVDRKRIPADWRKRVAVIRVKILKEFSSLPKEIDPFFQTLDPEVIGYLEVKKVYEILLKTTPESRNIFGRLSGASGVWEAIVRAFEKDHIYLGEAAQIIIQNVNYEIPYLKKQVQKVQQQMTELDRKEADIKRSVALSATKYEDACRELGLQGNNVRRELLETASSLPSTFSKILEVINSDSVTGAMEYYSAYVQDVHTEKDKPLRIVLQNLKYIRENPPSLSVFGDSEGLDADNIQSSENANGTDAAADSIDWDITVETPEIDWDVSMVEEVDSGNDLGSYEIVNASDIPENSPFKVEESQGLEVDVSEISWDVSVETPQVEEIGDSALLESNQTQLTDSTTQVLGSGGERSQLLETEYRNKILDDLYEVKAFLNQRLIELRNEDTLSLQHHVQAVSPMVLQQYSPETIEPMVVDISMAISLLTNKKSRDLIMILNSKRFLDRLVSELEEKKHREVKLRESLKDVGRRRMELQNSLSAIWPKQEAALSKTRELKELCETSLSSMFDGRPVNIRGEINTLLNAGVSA

Results are given in words; binding and its absence hold for the method and conditions named. For part of these data: Binding seen in cells or lysates may run through a third protein. Some entries that bind do so weakly or less than the wild type. For part of these data: Where a sequence is shown, tags or fusion partners need not be part of it.

The target in assay [1] is HIS6-AtC53 (Arabidopsis thaliana) (UniProt Q9FG23). In words: native MS; proteins exchanged into ammonium acetate, nanoelectrospray, Synapt G2Si; C53 1-5 µM or IDR 2.5 µM with 5-20 µM ATG8A or GABARAP; both purified.
Assay [2] deals with T1, GST-ATG8A^LDS(YL50AA) (Arabidopsis thaliana) (UniProt Q8LEM4).
T1 sequence: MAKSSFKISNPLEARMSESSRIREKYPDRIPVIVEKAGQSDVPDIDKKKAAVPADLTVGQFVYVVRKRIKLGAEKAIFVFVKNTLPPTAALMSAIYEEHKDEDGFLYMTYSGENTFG
Put plainly: pull-down; E. coli lysates with recombinant proteins mixed, glutathione magnetic agarose beads, 1 h 4°C, 100 mM sodium phosphate pH 7.2, 300 mM NaCl, 1 mM DTT, 0.01% IGEPAL; immunoblot; peptides at 200 µM where added.

Assay [3] addresses GST-ATG8A (Arabidopsis thaliana) (UniProt Q8LEM4). The description is as above.

With HIS6-AtC53 (from UniProt Q9FG23 1-549), the binding entry in assay [1] is listed as “no binding (tested: 1 µM)”.

In the case of MBP-AtC53 (from UniProt Q9FG23 1-549), the binding entry was “no binding” in assay [2] and “binds” in assay [3].

With “MBP-AtC53^IDR(239-372) (from UniProt Q9FG23 239-372) (domain or fragment)”, in assay [3], the binding entry is reported as “binds”.

With “Strep -AtC53^(AIM (F48A, Y69A, Y76A, W100A, Y304A)) (from UniProt Q9FG23 1-549)”, the binding result in assay [3] was “binds”.

Consider Strep-AtC53 (from UniProt Q9FG23 1-549), for which the binding result in assay [3] was “binds”.
